# Assay results published in the supplement of paper PMC8728848.
# The list shows a part of the results.
# B1: Als3-41 (Candida albicans) (protein)
# chain: KTITGVFNSFNSLTWSNAATYNYKGPGTPTWNAVLGWSLDGTSASPGDTFTLNMPCVFKFTTSQTSVDLTAHGVKYATCQFQAGEEFMTFSTLTCTVSNTLTPSIKALGTVTLPLAFNVGGTGSSVDLEDSKCFTAGTNTVTFNDGGKKISINVDFERSNVDPKGYLTDSRVIPSLNKVSTLFVAPQCANGYTSGTMGFANTYGDVQIDCSNIHVGITKGLNDWNYPVSSESFSYTKTCSSNGIFITYKNVPAGYRPFVDAYISATDVNSYTLSYANEYTCAGGYWQRAPFTLRWTGYRNSDAGSNGIVIVATTRTVTDSTTAVTTLPFDPNRDKTKTIEILKPIPTTTITTSYVGVTTSYLTKTAPIGETATVIVD
# How the values were obtained:
# Test in all cases: glycan array binding signal (z-score within array); higher = stronger binding
# Details in all cases: glycan notation: IUPAC condensed, linker removed
# Gal(a1-6)Glc = biological target: Gal(a1-6)Glc
# Outline: (§1)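 The binding signal is a Z-score computed within each array. Data were drawn from 3228 arrays in the Consortium for Functional Glycomics database, restricted to those with a known protein sequence. Scores were averaged over arrays of the same protein sequence at different concentrations or buffers, and over linkers, and negative values can be taken as non-binding.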
# Gal(b1-2)Gal = biological target: Gal(b1-2)Gal
# Outline: as §1
# Gal(b1-3)Gal = biological target: Gal(b1-3)Gal
# Outline: as §1
# Gal(b1-3)Gal(b1-4)GlcNAc = biological target: Gal(b1-3)Gal(b1-4)GlcNAc
# Outline: as §1
# Gal(b1-3)GalNAc = biological target: Gal(b1-3)GalNAc
# Outline: as §1
# [1] = biological target: Gal(b1-3)GalNAc(a1-3)[Fuc(a1-2)]Gal(b1-4)Glc
# Outline: as §1
# [2] = biological target: Gal(b1-3)GalNAc(a1-3)[Fuc(a1-2)]Gal(b1-4)GlcNAc
# Outline: as §1
# Gal(b1-3)GalNAc(b1-3)Gal = biological target: Gal(b1-3)GalNAc(b1-3)Gal
# Outline: as §1
# [3] = biological target: Gal(b1-3)GalNAc(b1-3)Gal(a1-4)Gal(b1-4)Glc
# Outline: as §1
# [4] = biological target: Gal(b1-3)GalNAc(b1-4)Gal(b1-4)Glc
# Outline: as §1
# [5] = biological target: Gal(b1-3)GalNAc(b1-4)[Neu5Ac(a2-3)]Gal(b1-4)Glc
# Outline: as §1
# Gal(b1-3)GlcNAc = biological target: Gal(b1-3)GlcNAc
# Outline: as §1
# [6] = biological target: Gal(b1-3)GlcNAc(a1-3)Gal(b1-4)GlcNAc
# Outline: as §1
# [7] = biological target: Gal(b1-3)GlcNAc(a1-6)Gal(b1-4)GlcNAc
# Outline: as §1
# Gal(b1-3)GlcNAc(b1-2)Man = biological target: Gal(b1-3)GlcNAc(b1-2)Man
# Outline: as §1
# [8] = biological target: Gal(b1-3)GlcNAc(b1-2)Man(a1-3)[Gal(b1-3)GlcNAc(b1-2)Man(a1-6)]Man(b1-4)GlcNAc(b1-4)GlcNAc
# Outline: as §1
# [9] = biological target: Gal(b1-3)GlcNAc(b1-2)Man(a1-3)[Gal(b1-3)GlcNAc(b1-2)Man(a1-6)]Man(b1-4)GlcNAc(b1-4)[Fuc(a1-6)]GlcNAc
# Outline: as §1
# [10] = biological target: Gal(b1-3)GlcNAc(b1-2)Man(a1-3)[GlcNAc(b1-4)][Gal(b1-3)GlcNAc(b1-2)Man(a1-6)]Man(b1-4)GlcNAc(b1-4)GlcNAc
# Outline: as §1
# [11] = biological target: Gal(b1-3)GlcNAc(b1-2)[Gal(b1-3)GlcNAc(b1-6)]Man(a1-6)[Gal(b1-3)GlcNAc(b1-2)Man(a1-3)]Man(b1-4)GlcNAc(b1-4)GlcNAc
# Outline: as §1
# [12] = biological target: Gal(b1-3)GlcNAc(b1-3)Gal(b1-3)GlcNAc
# Outline: as §1
# [13] = biological target: Gal(b1-3)GlcNAc(b1-3)Gal(b1-4)Glc
# Outline: as §1
# [14] = biological target: Gal(b1-3)GlcNAc(b1-3)Gal(b1-4)GlcNAc
# Outline: as §1
# [15] = biological target: Gal(b1-3)GlcNAc(b1-3)Gal(b1-4)GlcNAc(b1-2)Man(a1-3)[Gal(b1-3)GlcNAc(b1-3)Gal(b1-4)GlcNAc(b1-2)Man(a1-6)]Man(b1-4)GlcNAc(b1-4)GlcNAc
# Outline: as §1
# [16] = biological target: Gal(b1-3)GlcNAc(b1-3)Gal(b1-4)GlcNAc(b1-2)[Gal(b1-3)GlcNAc(b1-3)Gal(b1-4)GlcNAc(b1-6)]Man(a1-6)[Gal(b1-3)GlcNAc(b1-3)Gal(b1-4)GlcNAc(b1-2)Man(a1-3)]Man(b1-4)GlcNAc(b1-4)[Fuc(a1-6)]GlcNAc
# Outline: as §1
# [17] = biological target: Gal(b1-3)GlcNAc(b1-3)Gal(b1-4)GlcNAc(b1-3)Gal(b1-4)GlcNAc(b1-2)[Gal(b1-3)GlcNAc(b1-3)Gal(b1-4)GlcNAc(b1-3)Gal(b1-4)GlcNAc(b1-6)]Man(a1-6)[Gal(b1-3)GlcNAc(b1-3)Gal(b1-4)GlcNAc(b1-3)Gal(b1-4)GlcNAc(b1-2)Man(a1-3)]Man(b1-4)GlcNAc(b1-4)[Fuc(a1-6)]GlcNAc
# Outline: as §1
# [18] = biological target: Gal(b1-3)GlcNAc(b1-3)Gal(b1-4)GlcNAc(b1-6)[Gal(b1-3)GlcNAc(b1-3)]Gal(b1-4)Glc
# Outline: as §1
# [19] = biological target: Gal(b1-3)GlcNAc(b1-3)Gal(b1-4)[Fuc(a1-3)]GlcNAc
# Outline: as §1
# [20] = biological target: Gal(b1-3)GlcNAc(b1-3)Gal(b1-4)[Fuc(a1-3)]GlcNAc(b1-6)[Gal(b1-3)GlcNAc(b1-3)]Gal(b1-4)Glc
# Outline: as §1
# [21] = biological target: Gal(b1-3)GlcNAc(b1-3)GalNAc
# Outline: as §1
# [22] = biological target: Gal(b1-3)GlcNAc(b1-6)Gal(b1-4)GlcNAc
# Outline: as §1
# [23] = biological target: Gal(b1-3)GlcNAc(b1-6)GalNAc
# Outline: as §1
# [24] = biological target: Gal(b1-3)GlcNAc(b1-6)[Gal(b1-3)]GalNAc
# Outline: as §1
# Gal(b1-3)GlcNAc6S = biological target: Gal(b1-3)GlcNAc6S
# Outline: as §1
# [25] = biological target: Gal(b1-3)[Fuc(a1-4)]GlcNAc
# Outline: as §1
# [26] = biological target: Gal(b1-3)[Fuc(a1-4)]GlcNAc(b1-2)Man
# Outline: as §1
# [27] = biological target: Gal(b1-3)[Fuc(a1-4)]GlcNAc(b1-2)Man(a1-3)[Gal(b1-3)[Fuc(a1-4)]GlcNAc(b1-2)Man(a1-6)]Man(b1-4)GlcNAc(b1-4)[Fuc(a1-6)]GlcNAc
# Outline: as §1
# [28] = biological target: Gal(b1-3)[Fuc(a1-4)]GlcNAc(b1-3)Gal(b1-3)[Fuc(a1-4)]GlcNAc
# Outline: as §1
binder,measurement,setting,value
B1,glycan array binding signal (z-score),Gal(a1-6)Glc,-0.255
same,glycan array binding signal (z-score),Gal(b1-2)Gal,-0.182
same,glycan array binding signal (z-score),Gal(b1-3)Gal,-0.067
same,glycan array binding signal (z-score),Gal(b1-3)Gal(b1-4)GlcNAc,-0.059
same,glycan array binding signal (z-score),Gal(b1-3)GalNAc,-0.311
same,glycan array binding signal (z-score),[1],0.097
same,glycan array binding signal (z-score),[2],-0.256
same,glycan array binding signal (z-score),Gal(b1-3)GalNAc(b1-3)Gal,-0.141
same,glycan array binding signal (z-score),[3],0.05
same,glycan array binding signal (z-score),[4],-0.195
same,glycan array binding signal (z-score),[5],0.174
same,glycan array binding signal (z-score),Gal(b1-3)GlcNAc,-0.234
same,glycan array binding signal (z-score),[6],-0.315
same,glycan array binding signal (z-score),[7],-0.263
same,glycan array binding signal (z-score),Gal(b1-3)GlcNAc(b1-2)Man,0.151
same,glycan array binding signal (z-score),[8],-0.211
same,glycan array binding signal (z-score),[9],-0.291
same,glycan array binding signal (z-score),[10],0.317
same,glycan array binding signal (z-score),[11],-0.281
same,glycan array binding signal (z-score),[12],0.028
same,glycan array binding signal (z-score),[13],-0.33
same,glycan array binding signal (z-score),[14],-0.159
same,glycan array binding signal (z-score),[15],0.175
same,glycan array binding signal (z-score),[16],0.669
same,glycan array binding signal (z-score),[17],0.045
same,glycan array binding signal (z-score),[18],-0.376
same,glycan array binding signal (z-score),[19],-0.095
same,glycan array binding signal (z-score),[20],-0.357
same,glycan array binding signal (z-score),[21],-0.091
same,glycan array binding signal (z-score),[22],-0.234
same,glycan array binding signal (z-score),[23],-0.311
same,glycan array binding signal (z-score),[24],0.046
same,glycan array binding signal (z-score),Gal(b1-3)GlcNAc6S,-0.278
same,glycan array binding signal (z-score),[25],-0.315
same,glycan array binding signal (z-score),[26],-0.081
same,glycan array binding signal (z-score),[27],-0.339
same,glycan array binding signal (z-score),[28],0.013
